Measured values published in the RNAGym collection of RNA variant scans (doi:10.1093/nar/gkz1192).
Read counts are not given, so values of variants with three or more changes are uncertain.

B1: CPEB3 Ribozyme (parent)
chain: UAACAGGGGGCCACAGCAGAAGCGUUCACGUCGCAGCCCCUGUCAGAUUCUGGUGAAUCUGCGAAUUCUGCUGUAUAUCUC

Variants of: B1
Experiment: self-cleavage, relative activity (ratio to wild type); higher = more cleavage; in vitro, sequencing
Procedure, shortened: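 For each CPEB3 ribozyme variant, relative activity is its cleaved/total read fraction divided by the unmutated ribozyme's. Barcoded error-prone PCR libraries were transcribed by T7 RNA polymerase (5 hours, 37°C) and held in DNase I for 15 min before an EDTA stop, with cleavage occurring throughout. Template-switching reverse transcription and Illumina sequencing were used to read the RNAs. A 5-read minimum applied, and results are the mean of three batches.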

| Variant | self-cleavage |
| --- | --- |
| UAACAGGGGGCCACAGCAGAAGCGAUCACGUCGCAGCCCAUGUCAGAUUCCGGUGGAUCUGCGAAUUCUGCUGUAUAUCUC | 0.15 |
| UAACAGGGGGCCACAGCAGAAGCGAUCACGUCGCAGCCCUUGUCAGAUUCUGGUGCAUCUGCGAAUUCUGCUGUAUAUCUC | 0.06 |
| UAACAGGGGGCCACAGCAGAAGCGAUCACGUCGCAGCCCUUGUCAGAUUCUGGUGAAUCCGCGAGUUCAGCUGUAUAUCCC | 0.07 |
| UAACAGGGGGCCACAGCAGAAGCGAUCACGUCGCAGCCCCUGUAAGAUUCUGGUGAAUCUGCGAAUUCUGCUGUAUACCUC | 0.18 |
| UAACAGGGGGCCACAGCAGAAGCGAUCACGUCGCAGCCCCUGUCAGAUUCUGGUGAAUCUGUGAAUUCUGCUGCAUAUCUC | 0.08 |
| UAACAGGGGGCCACAGCAGAAGCGAUCACAUCGCAGCCCCUGUCAGAUUCUGGUGAGUCUGCGAAUUCUGCUGUAUAUCUC | 0.48 |
| UAACAGGGGGCCACAGCAGAAGCGAUCACGUCACAGCCCCUGUCAGAUUCUGGUGAAUCCGCGAAUUCUGCCGCAUAUCUC | 0.07 |
| UAACAGGGGGCCACAGCAGAAGCGAUCACGUCGCACCCCCUGUCAGAUUCUGGUGAAUCUGCGAAUUCUGCUGAAUAUCUC | 0.07 |
| UAACAGGGGGCCACAGCAGAAGCGAUCACGUCGCAGCCCCUACCAGAUUCUGGUGAAUCCGCGAAUUCUGCUGGAUAUCUC | 0.2 |
| UAACAGGGGGCCACAGCAGAAGCGAUCACGUCGCAGCCCCUCUCAGAUUCUGGUGUAUCUGCGUAUUCUGCUGUAUAUCUC | 0.19 |
| UAACAGGGGGCCACAGCAGAAGCGAACACGUCGCAGCCCCUGCCAGAUUCUGGUGAAUCUGCGAAUACUGCUGUAUAUCCC | 0.1 |
| UAACAGGGGGCCACAGCAGAAGCGAACACGUCGCAGCCCCUGUCAGAUUCUGGUGAAUCUGCGAAUUCUGCUGUAUAUCCC | 0.25 |
| UAACAGGGGGCCACAGCAGAAGCGACCGCGUCGCAGCCCCUGACAGAUUCUGGUGAACCAGCGAAUUCUGCUGUAUAUCUC | 0.17 |
| UAACAGGGGGCCACAGCAGAAGCGACCACGUCGCAGCGCCUGUCAGAUUCUGGUGAAUCUGCGAAUUCAGCUGAAUAUCUC | 0.16 |
| UAACAGGGGGCCACAGCAGAAGCGACCACGUCGCAGCCCCCGUCAGAAUCUGGUGAAUCUGCGAAUUCCGCUGUAUGUCUC | 0.2 |
| UAACAGGGGGCCACAGCAGAAGCGACCACGUCGCAGCCCCUGCCAGAUUCUGGUGAAUCUGCGAAUUCUGCUGUACAUCUC | 0.09 |
| UAACAGGGGGCCACAGCAGAAGCGACCACGUCGCAGCCCCUGUCAGACUCUGGUGAAUCUGCGAAUUCUGCUGUAUAUCUC | 0.09 |
| UAACAGGGGGCCACAGCAGAAGCGAGCGCGUCGCUGCCCCUGUCAGAUUCUGGUGAAUCUGCGAAUUCUGCUGUAUAUCUC | 0.2 |
| UAACAGGGGGCCACAGCAGAAGCGAUCACGACGCAGCCCCUGUCAGAUUCUGGUGUAUCUGCGAAUUCUGCUGGAUAUCUC | 0.12 |
| UAACAGGGGGCCACAGCAGAAGCGAUCACGCCGCAGCCCCAGUCUGAUUCUGGUGGAUCUGCGAAUUCUGCUGUAUAUCUC | 0.09 |
| UAACAGGGGGCCACAGCAGAAGCGAUCACGCCGCAGCCCCAGUCAGAUUCUGGUGAAUCUGCGAAUUCUGCUGUAUACCUC | 0.06 |
| UAACAGGGGGCCACAGCAGAAGCGAUCACGCCGCAGCCCCUGUCAGAUCCUGGUGGAUCUGCGAUUUCUGCUGUAUAUCUC | 0.06 |
| UAACAGGGGGCCACAGCAGAAGCGAUCACGCCGCAGCCCCUGUCAGAUUCUGGUGAAUCAGCGAAUUCUGCUGUAUAUCUC | 0.09 |

| Variant | self-cleavage |
| --- | --- |
| UAACAGGGGGCCACAGCAGAAGCGAUCACGGCGCAGCCCCUGUCGGAUUCUGGGGAAUCUGCGAAUUCUGCUGUAUACCUC | 0.04 |
| UAACAGGGGGCCACAGCAGAAGCGAUCACGUCGCAGCCCCAGUCAGAUUCUGGUGGAUCUGCGAAUUCUGCUGUAUAACUC | 0.08 |
| UAACAGGGGGCCACAGCAGAAGCGAUCACGUCGCAGCCCCCGACAGGAUCUGGUGAAUCUGCGAAAUCUGCUGUAUAUCUC | 0.17 |
| UAACAGGGGGCCACAGCAGAAGCGAUCACGUCGCAGCCCCGGUCAGAUUCCGGUGAAUCUGCGAAUUCUACUGUAUAUCUC | 0.22 |
| UAACAGGGGGCCACAGCAGAAGCGAUCACGUCGCAGCCCCGGUCAGAUUCCGGUGAAACCGCGAAUUCUGCUGUAUAUCUC | 0.1 |
| UAACAGGGGGCCACAGCAGAAGCGAUCACGUCGCAGCCCCUGACAGAUCCUGGUGAAUCAGCGAAUUCUGCGGUAUAUCUC | 0.14 |
| UAACAGGGGGCCACAGCAGAAGCGAUCACGUCGCAGCCCCUGACAGAUUCUGGUGAAUCUGCGAAUUCUGCGGUAUAUCUC | 0.11 |
| UAACAGGGGGCCACAGCAGAAGCGAUCACGUCGCAGCCCCUGCCAGAUUCUGGUGAAUCUACGAAUUCUGCUGUAUAUCUC | 0.08 |
| UAACAGGGGGCCACAGCAGAAGCGAUCACGUCGCAGCCCCUGUCAGAAUCUUGUGAAUCUGCGAAUUCUGCUGUAUAUCUG | 0.07 |
| UAACAGGGGGCCACAGCAGAAGCGAUCACGUCGCAGCCCCUGUCAGACUCUGGUGGAACUGCGAAUUCUGCUGUAUAUCUC | 0.15 |
| UAACAGGGGGCCACAGCAGAAGCGAUCACGUCGCAGCCCCUGUCAGACUCUGGUGAAUCUGCGAAUUCUGCUGUAUAACUC | 0.13 |
| UAACAGGGGGCCACAGCAGAAGCGAUCACGUCGCAGCCCCUGUCAGAUUCAGGAGAAUCUGCGAAUUCUGCUGUAUAUCUC | 0.33 |
| UAACAGGGGGCCACAGCAGAAGCGAUCACGUCGCAGCCCCUGUCAGAUUCUGGUGAAACUGCGAAUUCUGCUGUAUAACCC | 0.13 |
| UAACAGGGGGCCACAGCAGAAGCGAUCACGUCGCAGCCCCUGUCAGAUUCUGGUGAACCAGCGAAUACUGCUGUAUAUCUC | 0.21 |
| UAACAGGGGGCCACAGCAGAAGCGAUCACGUCGCAGCCCCUGUCAGAUUCUGGUGAAUCUGCGAACUCUGCAGUAUAUCUC | 0.13 |
| UAACAGGGGGCCACAGCAGAAGCGAUCACGUCGCAGCCCCUGUCAGAUUCUGGUGAAUCUGCGAAUUCAGCUGUAUAUCAC | 0.14 |
| UAACAGGGGGCCACAGCAGAAGCGCUCGCGUCGCGGCCCCUGUCAGAUUCUGGUGAAUCUGCGAAUUCUGCUGUAUAUCUC | 0.16 |
| UAACAGGGGGCCACAGCAGAAGCGCUCGCGUCGCAGCCCCUGUCAGGUUCUGGUGAAUCUGCGAAUUCUGCUGUAUAUCUC | 0.21 |
| UAACAGGGGGCCACAGCAGAAGCGCUCGCGUUGCAGCCCCUGUCAGAUUCUGGUGAAUCUGCGAAUCCUGCUGUGUAUCUC | 0.14 |
| UAACAGGGGGCCACAGCAGAAGCGCUCGCGUCGCAGACCCUGUCAGAUUCUGGUGAAUCUGCGAAUUCUGCUGUAUAUCUC | 0.25 |
| UAACAGGGGGCCACAGCAGAAGCGCUCGCGUCGCAGCUCCCGUCAGAUUCUGGUGAAUCUGCGAAUUCUGCUGUAUAUCUC | 0.64 |
| UAACAGGGGGCCACAGCAGAAGCGCUCGCGUCGCAGCCUCAGUCAGAUUCUGGUGAAUCUGCGAAUUCUGCUGUACAUCUC | 0.16 |
| UAACAGGGGGCCACAGCAGAAGCGCUCGCGCCGCAGCCCCUGUCAGAUUCUGGUGAAUCUGCGAAUUCUGCAGUAUACCUC | 0.04 |

| Variant | self-cleavage |
| --- | --- |
| UAACAGGGGGCCACAGCAGAAGCGCUCGCGUCGCAGCCCCUGACAGAUUCUGGUGAAUCUGCGAAUUCUGCUGUAUAUCUC | 0.11 |
| UAACAGGGGGCCACAGCAGAAGCGCUCGCGUCGCAGCCCCUGCCUGAUUCUGGUGAAUCUGCGAAUCCUGCUGUAUAUCUC | 0.33 |
| UAACAGGGGGCCACAGCAGAAGCGCUCGCGUCGCAGCCCCUGUCAGAUUCCGGUGAGUCUGCGAAUUCAGCUGUAUAUCUC | 0.21 |
| UAACAGGGGGCCACAGCAGAAGCGCUCUCGUCGCAGCCCCUGUCAGAUUCUGGUGUACCUGCGAAUUCUGCUGUAUAUCUC | 0.19 |
| UAACAGGGGGCCACAGCAGAAGCGCUCUCGUCGCAGUCCCUGUCAGACUCUUGUGUAUCUGCGAAUUCUGCUGUAUACCUC | 0.07 |
| UAACAGGGGGCCACAGCAGAAGCGCUCUCGUCGCAGCCCAUGUCAGAUUCUGGUGAACCUGCGAAUUCUGCUGUAUAUCUC | 0.14 |
| UAACAGGGGGCCACAGCAGAAGCGCUCUCGACGCAGCCCCUGUCAGAUUCUGGUGAAUCUGCGAAUUCAGCUGUAUAUACC | 0.21 |
| UAACAGGGGGCCACAGCAGAAGCGCUCUCGCCGCGGCCCCUGUCAGAUUCUGGUGAAUCUGCGAAUUCUGCUGUAUAUCUC | 0.16 |
| UAACAGGGGGCCACAGCAGAAGCGCUCUCGUCGCAGCCCCUGUCAGAUUCAGGUGAAUCUGCGAAUUCUGCUGUAUAACUC | 0.16 |
| UAACAGGGGGCCACAGCAGAAGCGCUCUCGUCGCAGCCCCUGUCAGAUUCUGGUGAAUCUGCGAAUUCUGCUGUAUACCUC | 0.14 |
| UAACAGGGGGCCACAGCAGAAGCGCUCACGUCGCCGCCCUUGUCAGACUCCUGUGAAUCUGCGAAUUCUGCUGUAUAUCCC | 0.06 |
| UAACAGGGGGCCACAGCAGAAGCGCUCACGUCGCGGCCCCUGUCCGACUCUGGUGAAUCUGCGAAUUCUGCUGUAUACCUC | 0.03 |
| UAACAGGGGGCCACAGCAGAAGCGCUCACGUCGCGGCACCUGUCAGAUCCUGGUGAAUCUGCGAACUCUGCUGUAUAUCUC | 0.21 |
| UAACAGGGGGCCACAGCAGAAGCGCUCACGUCGCGGCCCCUGUCAAAUUCUGGUGAAUCUGCGGAUUCUGCUGUAUAUCUC | 0.18 |
| UAACAGGGGGCCACAGCAGAAGCGCUCACGUCGCGGCCCCAGUCAGAUUCUGGUGAAUCUGCGAAUUCUGCUGUAUAUCUC | 0.31 |
| UAACAGGGGGCCACAGCAGAAGCGCUCACGUCGCGGCCCCCGUCGGAUUCUGGUGAAUCUGCGAAUUCUGCUGUAUAUCUC | 0.33 |
| UAACAGGGGGCCACAGCAGAAGCGCUCACGUCGCGGCCCCCGUCAGAUUCUGGUGAAUCUGCGAGUUCUGCCGUACAUCCC | 0.14 |
| UAACAGGGGGCCACAGCAGAAGCGCUCACGUCGCGGCCCCCGUCAGAUUCUGGUGAAUCUGCGAAUUCGGCUGUAUAUCUC | 0.25 |
| UAACAGGGGGCCACAGCAGAAGCGCUCACGUCGCGGCCCCUGCCAGACUCUGGUGAAUCUGCGAAUUCUGCUGUAUACCUC | 0.15 |
| UAACAGGGGGCCACAGCAGAAGCGCUCACGUCGCGGCCCCUGUCAGACUCCGGUGAAUCUGCGAAUUCUGCUGUAUAUCUC | 0.29 |
| UAACAGGGGGCCACAGCAGAAGCGCUCACGUCGCGGCCCCUGUCAGACUCUGGUGAAUCCGCGAAUUCUGCUGUAUACCAC | 0.17 |
| UAACAGGGGGCCACAGCAGAAGCGCUCACGUCGCGGCCCCUGUCAGAUUCGGGUGAAUCUGCGGAUUCUGCUGUAAAUCUC | 0.14 |
